# Read counts are not given, so values of variants with three or more changes are uncertain.
# B1: LINE1-mini (parent)
# chain: GGCAGAGCUCAACACAGCGUGGCAAAGUGGCUGUGGCUAGACUGCC
# Variants of: B1
# Assay: self-cleavage, relative activity (ratio to wild type); higher = more cleavage; in vitro, sequencing; the parent is a self-cleaving ribozyme
row,Variant,self-cleavage
1,GACGGAGCUCAACACAGCGUCACAAAAUGGCUGUGGCUAGACUGCC,0.24
2,GGCCGAGCUCAACACAGCGUGGCAAAGUGGCUGUGUCUAGACAGCC,0.35
3,GGCAGAGCGCACCACAGCGUGGCAAAGUGGCUGUGGCUAUACUGCC,0.03
4,GGCAGGGCUCAACACAGCGUGGCAAAGUGGCUGUAGCUUGUCUGCA,0.06
5,GGCAGAGCUCAACACAGCGUAGCAAAGUGGCGGCGGCUAGACUGCC,0.98
6,GGCAGAGCUCAACACGGCGUGGCAAAGUGGCCGUCGCUAGACUGCU,0.03
7,GGCAGAGCUCAACACAGCGUGGGAAAGUGGCUGUGGCUAGAGUGGC,0.02
8,GGCAGAGCUCAACACAACGUGGCACAGUCGCUGUGGCUAGACUGCC,0.54
9,GGCAAAGCUCAACACUGCGUGGCAAAGUGGCUGUGGGUAGACUGCG,0.05
10,GGCAUAGCUCAACACAGCGGGGUAAAGUGGCUGUGGCUAGGCAGCC,0.23
11,AGCAGGGCUCAACGCAGCGUGGCAAAGGGGCUGUGGCUAGAGUGCC,0.01
12,GGCAGAACUCAACAGAGCGGGGCAAAGUGGCUGUGGCUAGACUGCC,0.09
13,GGCAGAGCUCUACACAACGUGGCAAAGUGGCUGUGGUUAGACUGCC,0.04
14,GUCAGCGCUCAUCACAGCGUGGCAAAGUGGCUGUGGGUAUACAGCC,0
15,GACGGAGCUCAACACAGCGUGGCAAAGUGUCUGUGGCUAGACUGCC,0.66
16,GGCAGAGUUCAACAUAGCGUGCCAAAGUGGCUGGGGCUAGACUGCC,0.17
17,CGCAUCGCUCAACACAGCGUGGCAAAGUGGCUGGGGCUAGACUGCC,0.01
18,GGCGGAGCUCAACACAGCGUGUCAAAGUGGCUGUGGCUACACUGCC,0.42
19,GACAGAGCUCAACACAGCGUUGCAAAGUGGUUGUGGCUAGACUGCC,0.19
20,GGCAGGGCUCAACACAGCGUGGCAAAGUCGCAGUGAAUAGACUGCA,0.07
21,GGCAUAGCUCAACUCAGAGUGGCAAAGUGGCUGUGGCUAGCCUGCC,0.03
22,GGCAGAGUUCAACACAGCGUGGGAAAGUGGCCGUGGCAAGACUGUC,0.02
23,GGCCGAGCUCAACACAGCGUUGCAAAGUGGCUGUGGCUAGACUGCA,0.36

row,Variant,self-cleavage
1,GCCAGUCCUCUACCCAGCGUGGCAAAGUGGCUGUGGCUAGCCUGCC,0.01
2,GGCAGAGCUCGACACAACCUGUCAACGUGGUUGUGGCUAGACUGCG,0.01
3,GACAGAGCUAAACACAGCGUGGCAAGGUGGGUGUUGCUAGUCUGCC,0.03
4,GGCAGAGCUCAUCACAGCGUAUCAAAGUGGCUGCGGCUAUACUGCC,0.04
5,GGCAGAGCUCAACACUGCAUGGCGAAGUGGCUGUGGCUAGACUGCC,0.01
6,GGCAGAGCUAAACACAUCGUGGCAAAGUGGCUGUGGCUGGACUGCC,0.01
7,GACAGAGCUAAACACAGCGUCGAAAAGUGGCUGUGGCUAGACUGCC,0.05
8,GGCAGAGCUCAACGCAGCGUGGCAAAGUGGCGGUGCCUAGACUGCC,0.02
9,GGCAGAGCUCAUCACAGCGUGCCAAAGCGGCUGUGGCUAGACUGAC,0.03
10,UGCAAAGCUCAACACAGCGGGGCAAAGUGGCUGUGGCUAGACUGCC,0.03
11,GGCAGAGCUCAGCACAGCGCGGCAAAUUGGCUGUGGCUAGACUGCC,0.02
12,GGCAGAGCUCAACACAGCCUGGCCAAGUGGCAGUGGCUAGACUGCC,0.08
13,GGCCCAGCUCAACACAGCGUGGCUAAGUCGCUGUGGCUAGACUUCC,0.08
14,GGGAGAGCUCAACACUGCGUGGUAAUGUGGCUGUGGCUAGACUGCC,0.15
15,GGCAGAGCUCAACACAGCGUGGCCAGGUGGCUGUGGGUAGACUGGC,0.04
16,GGCUCAGCUCAACACAGCGUGGCAAAGUGGCUGUGGCUAGAAUGCC,0.18
17,GGCAGAGCUCAACACAGCGUGACAAAGUGGCUGUGGCUAGGCUCCC,0.07
18,GGGAGAGCUCAACAUAGCGUGGCAAAAUGCCGGUGGCUAGGCUGCC,0.06
19,GGCAAAGCUCAAUACAGCGUGGAAAAGUGGCUGUCGCUAGACUGCC,0.04
20,GGCAAAGCUCAACACAGCGUGGCAAAGUGGCUCUGGCUAGACUGCA,0.2
21,GGCUGAGCUCAAGACAGCGUGGCAAAGUGGCUGUGGCGAUACUGCC,0.02
22,GCCAAGGCUCUACACAGCGUGGCAAAGUGACUGUGGCUAGACUGCC,0.02
23,GGCUGAGCUCCACACAGCGUGGAAAAAUGGCUGUGGCUAGACUGCC,0.01

row,Variant,self-cleavage
1,CUCAGAGCUCAACACAGCGUGCCAAAGUGUCUGUGGCUACACUGCC,0.01
2,GACAGAGCUCAACACAGCGUGGGAAAGUGGCUGUGGCUAGACUGGC,2.92
3,GGCAGAGCUUAACACAGCGUGGCAAAGUGGCUGUGGUUUGACUGCC,0.04
4,GGCAUAGCUCAACACAGCGUGGCAAAGUGACCGUGGCUAGACUGCC,0.09
5,GGAAGAGCUCAACACUGUGUGGCAAAGUGGAUGUGGAUAGACUGCC,0.73
6,GGCAGAGCUCAACACAGCGUGGCCAAAUGGCUGUGGCUAGACUGCA,0.35
7,GGCAGAGCUCAACAAAGCGUGGCAGAGUGGCUGUGCCGAGACCGGC,0.01
8,GGCAGAGCUCAACACAGCGUGUCAAAGUGUCUUUGGCUAGACUGCC,0.01
9,GACAGAGCUCAAAACAGCGUGGCAAAGUGGCUAUGGCUAGACUGCC,0.12
10,GGCAGAGAUAAACACAGCGUGGGAAAGUGGCUGUGGCUAGACUGCC,0.01
11,GGCAGAGCUGAACAAAUCGUGGCAAAGUGGAUGUGGCUAGACUUCC,0.02
12,GGCAGAGCUCACCAUAGCGUGGCAAAGUGGCUGUGGCUAUAAUGCC,0.02
13,GGCAGAGCUCAACACAGCGUGGCAAAGUGUCCGUGCCAAGACUGCC,0.29
14,GGCAGAGCGCAACACAGAGUGGCAAAGAGGCUGUGGAUAGACUGCC,0.23
15,GGCACAGCUCAACACAGAGUGCCAAAGUGGCAGUGGCUAGACUGCC,0.03
16,GGCAGAGUUUAACACAGCGUGGCAAUGUGGCUGUGGCUAGACUGCC,0.2
17,GGCAGAGCACAACACAGCGCGGCAAAGUGUCUGUGUCUAGACUGUC,0.14
18,GGCACCGCUCAACACAGCGUGGCAAAGUGGGUGUGGCUAGACUGCC,0.05
19,GGCAGGGAUCAACACAGCGUGGCAAAGUGGCUGUUGAUAUACUGCC,0.01
20,AACAGAGCUCAACACAGUGUGGCAAAGUGGCUGUGGCUAAACUGCG,0.46
21,GGCUGAGCUCAACACAGCGUGGCAAAGUGACUGGGGCUAGACUGCC,0.05
22,GGCAGAGUUCAACACAGCGUGGCAAAGUGGCAGUGACAAGACUGCC,0.06
23,GGCAUAGCUCACCACAGCGUGGUAAAGUGGCUGUGGAUAUACUGCC,0.03

row,Variant,self-cleavage
1,GGAAGAGCUCAACACAGUAUGGCUAAGGGGCUGUGGCUAGACUGCC,0.31
2,GGCAGAGCUCAACACAGCGUGGCAAAGCGCCUCUGGCGACACUCCC,0
3,GGCAGAGCUAAACACAGCGUGGCAAAGUGGCUGUGGCCAGGCUGCC,0.1
4,GGCAGAGCUCAACACAGCAUGGCAUAGUGACUGUGGCUAGACUGCC,2.09
5,GGCAGAGCUCAACACAGCGGGGCAAAGUGGCUGUUGCUAGACUACC,0.03
6,GGCAUAGAUCAAGACAGCGUGGCAAAGUGGCUGUGCCUAGACUGCA,0.11
7,GGCAGAGCUCAACACAGCGUGGCAAAGUAGCUGUGGCUAAACUGAC,0.09
8,GGCAGAGCUCAUCGCAGCGUGGCAAAGUGGCUGUGGCUAAACUGCC,0.07
9,GGCAGAGCUCAACACAGCGUGGCAAAUUUGCUGUCGCUAGACUUCC,0.03
10,GGCAGAGCUCAACACAGCGUGGCAAAAUGGCUGUGCCUAGACCGCC,0.28
11,GGCAGAGCUCAACACAGAGUGUCAAAAUUGCUGUGGCUAAACUGAC,0.19
12,GGCAGAACCCAACACAGCGUGGCAAAGUACCUGUGGCUAGAUUGCC,0.02
13,GGAAGAGCUCAACACAGCGAGGCAAAUUGGCUGUGGCUAGCCUGAC,0.02
14,GGCAGAGCUGUACUCAACGUGGCAAAGUGGCUGUGGAUAGUCUGCC,0.01
15,GCCAGAGCUCAACACAGCGUGGCAAAGUGGCUCUGGCUAGCCUGCC,0.02
16,GGCAGAUCUCAAAACAGCUUCGCAAAGUGGCUGUGGCUAGACUGCC,0.02
17,GGCAGCGCUCACCACAGCUUGGCAAAGUGGCUGUUUCUAGACUGCC,0.01
18,GGCAGAGCUUAACUCAGCGUGGCAAUGUGGCUGUGGGUAGACUGCC,0.06
19,GGCAGAGCUCAACACAGCGUGGCACAGUGGCUAUGGCUAGACUGUC,0.05
20,GUCAGAGCGCAAUACAGGGUGGCAAAGUGGCUGUGGCUAGACUGAC,0.02
21,GGCAGAGCUUAGCACGGCGUGGCAAAGUGGCUGUGGCUAGACAGCC,0.06
22,GGCAGAGCUCAACACAGCGUGGCCAAGUGGCUCUGGCUAGACUGCU,0.05
23,GGCAGAGCACAACGCAGCGUGGCAAAGUGGCUGUGGCUAGACUGCU,0.27

row,Variant,self-cleavage
1,GGCAGAGCUCAAAGUAGCGUAGCAAAGUGGCUGUGGCUAGACUGCC,0.02
2,GGCAGAGCUCAUUACAACGUUGCAAAGUGGCUGUGGCUAGACUGCC,0.03
3,GGCAGAGCUCAUCUCUGCGGGCCAAAGUAGCUGUGGCUAGACUGCU,0.03
4,GGCAAAGCUCAACACUGCGUGGCCAAGUGGCUGUGGCUAGAAUGCC,0.04
5,GGCAGAGAUCAACACAGCGUUCCAAAGUGGCUGUGGCUAGACUGCA,0.62
6,GGCGGAGCUCAACAAAGCGUGGCAAAGUGACUGUGGGUAGACUGAC,0.02
7,GGCAGAGCUCAACAGUGCGUGGCAAAGUGGCUGUGGCUAGACUUCC,0.1
8,GGCAGAGCUCAACCAAGCGUGGCAAAGUGGCUGUGGCUAGACGGUC,0.01
9,GGCAGAGCUCAACACAGCGUGGAAGAGUGGCUCUGGCUAGACGGUC,0.01
10,GGCUGAGGUCAACACAGCGUGGAAAAGUGGCUGAGCCUAGACUGCC,0.02
11,GACAGAGCUCAACACAGCGUGGCAAAGUCGCUGUGGCUACACUGCC,0.1
12,GGUAGAACUCAAAACAGCGUGGCAAAGUGGCUGUGGCUAGACUGCC,0.41
13,GGCAGAGCUCAACAGAGCGUGGCAAAGUGGCUGUGGAUAGAUUGCC,0.03
14,GCCAGAGCUCAACACAGCGGCGCUAUUUGGCUGUGGCUAAACUGCC,0.01
15,GGCAGAGCUCAACACAGCGGGGCAAAGUGGCAUUGGCUAGAUUGCC,0.04
16,GGCAGAGCUCAACACAGCGUGGCAAAGUUGCUGCGGCUAGACUGUC,0.02
17,GGCAGAGCUCAAGACAGCGAGGCAAAAUUGAUGUGGCUAGACUGCC,0.05
18,GGCAGAGCUCAGCACAGCGUGGCGAAGUGGCUGUGGCAAGACUGCC,0.03
19,GGCCGAGCUUAACACAGCGUGGCAAGGUGGCUUUGGCUAGACUUCC,0.03
20,GGCAGAGCUCCACACAGCGUGGCAAAGUGGCUGUGGCUUUACUGCC,0.03
